Results as given in patent US20110136811A1, “PROKINETICIN 1 RECEPTOR” (published 2011).

Molecular target: rat PK1 receptor, endogenous in rat ileum (rat, UniProt Q8R416)
Assay: cell-based or functional assay

B1: PK1 ligand preparation (recombinant human Prokineticin 1 after enterokinase removal of the N-terminal FLAG tag) (ligand)
chain: AVITGACERDVQCGAGTCCAISLWLRGLRMCTPLGREGEECHPGSHKVPFFRKRKHHTCPCLPNLLCSRFPDGRYRCSMDLKNINF
  EC50 of the PK1-evoked increase in Isc, rat ileum mucosa: ~8.2 nM
